Source: the supplement of paper PMC10037445
In all, about 2,900 compounds were measured (“NF-kB SEAP reporter activity, fold change vs agonist alone”: median about 0.99, highest 2% from about 2.6 on). The list shows a part of the results.

Key:
RAW-Dual [1] = test: NF-kB SEAP reporter activity, fold change vs agonist alone; cytotoxicity flag (confluency mask): not cytotoxic; higher = enhanced NF-kB activity
Method in brief: (§1)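 Cytotoxic wells were those whose IncuCyte confluency was below 70% of agonist controls in both mask sets. The cells were RAW-Dual macrophages at 50,000 cells/well in DMEM on 384-well plates, dosed with 50 nL of library stock by pin tool, stimulated with a PRR agonist 1 h later, and kept at 37 °C, 5% CO2 for 20 hours. IRF and NF-κB reporter activity, as fold change over agonist-alone wells, came from supernatant read by QuantiLuc luminescence and QuantiBlue absorbance, respectively.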

RAW-Dual [2] = test: NF-kB SEAP reporter activity, fold change vs agonist alone; higher = enhanced NF-kB activity; details: library stock concentration (final ~1000-fold dilution): 10 mM
Method in brief: as §1

RAW-Dual [3] = test: NF-kB SEAP reporter activity, fold change vs agonist alone; cytotoxicity flag (confluency mask): cytotoxic (confluency <70% of control); higher = enhanced NF-kB activity
Method in brief: as §1

[4] = agonist: ODN 1826 (TLR9) 0.5 ug/mL
[5] = agonist: Pam2CSK4 (TLR2/6) 0.1 ug/mL
[6] = agonist: Pam3CSK4 (TLR2/1) 0.1 ug/mL
[7] = cytotoxicity flag (confluency mask): not cytotoxic, agonist: Imiquimod (TLR7) […]
[8] = cytotoxicity flag (confluency mask): not cytotoxic, agonist: MPLA (TLR4) […]
[9] = cytotoxicity flag (confluency mask): cytotoxic (confluency <70% of control), agonist: MPLA (TLR4) […]

Q: What does the source list for `O=C(O)CCN1C(=O)C(=Cc2ccc(-c3ccc([N+](=O)[O-])cc3)o2)SC1=S` (library stock concentration (final ~1000-fold dilution): 10 mM)?
A: NF-kB SEAP reporter activity (RAW-Dual [1]; agonist: LPS (TLR4) 0.1 ug/mL): 0.807; NF-kB SEAP reporter activity (RAW-Dual [1]; [4]): 0.649; NF-kB SEAP reporter activity (RAW-Dual [1]; [5]): 0.104; NF-kB SEAP reporter activity (RAW-Dual [1]; [6]): 0.296

Q: With `O=C(O)CCN1C(=O)C(=Cc2ccc(-c3ccc([N+](=O)[O-])cc3)o2)SC1=S` as the compound, how does the “NF-kB SEAP reporter activity” value (RAW-Dual [2]; [7]) read?
A: 0.675

Q: What about the “NF-kB SEAP reporter activity” value (RAW-Dual [2]; [8]) of the same compound?
A: 0.731

Q: What does the source list for `COC(=O)CNC(=O)C(=O)OC` (library stock concentration (final ~1000-fold dilution): 10 mM)?
A: NF-kB SEAP reporter activity (RAW-Dual [1]; agonist: LPS (TLR4) 0.1 ug/mL): 0.99; NF-kB SEAP reporter activity (RAW-Dual [1]; [4]): 0.896; NF-kB SEAP reporter activity (RAW-Dual [1]; [5]): 0.999; NF-kB SEAP reporter activity (RAW-Dual [1]; [6]): 1.1

Q: What does the source list for `COC(=O)CNC(=O)C(=O)OC`?
A: NF-kB SEAP reporter activity (RAW-Dual [2]; [7]): 0.961; NF-kB SEAP reporter activity (RAW-Dual [2]; [8]): 1

Q: Which “NF-kB SEAP reporter activity” value (RAW-Dual [1]; agonist: LPS (TLR4) 0.1 ug/mL) does the source give for `Br.N#Cc1ccc(-c2csc(NN=C3CCCC3)n2)cc1` (library stock concentration (final ~1000-fold dilution): 10 mM) here?
A: 1.89

Q: What about the “NF-kB SEAP reporter activity” value (RAW-Dual [1]; [4]) of the same compound?
A: 0.82

Q: What about the “NF-kB SEAP reporter activity” value (RAW-Dual [1]; [5]) of the same compound?
A: 1.1

Q: What about the “NF-kB SEAP reporter activity” value (RAW-Dual [1]; [6]) of the same compound?
A: 0.869

Q: `Br.N#Cc1ccc(-c2csc(NN=C3CCCC3)n2)cc1` was tested. Which “NF-kB SEAP reporter activity” value (RAW-Dual [2]; [7]) did it give?
A: 0.97

Q: What about the “NF-kB SEAP reporter activity” value (RAW-Dual [2]; [8]) of the same compound?
A: 1.36

Q: `Oc1ccc(OCc2ccccc2)cc1` was tested. Which “NF-kB SEAP reporter activity” value (RAW-Dual [2]; [7]) did it give?
A: 1.74

Q: What about the “NF-kB SEAP reporter activity” value (RAW-Dual [2]; [8]) of the same compound?
A: 1.66

Q: Which results are given for `Oc1ccc(OCc2ccccc2)cc1` (library stock concentration (final ~1000-fold dilution): 10 mM)?
A: NF-kB SEAP reporter activity (RAW-Dual [1]; agonist: LPS (TLR4) 0.1 ug/mL): 1.88; NF-kB SEAP reporter activity (RAW-Dual [1]; [4]): 1.8; NF-kB SEAP reporter activity (RAW-Dual [1]; [5]): 1.41; NF-kB SEAP reporter activity (RAW-Dual [1]; [6]): 1.42

Q: Which results are given for `CCC1=C(C)CN(C(=O)NCCc2ccc(S(=O)(=O)NC(=O)NC3CCC(C)CC3)cc2)C1=O` (configuration not stated) (library stock concentration (final ~1000-fold dilution): 10 mM)?
A: NF-kB SEAP reporter activity (RAW-Dual [1]; agonist: LPS (TLR4) 0.1 ug/mL): 1.28; NF-kB SEAP reporter activity (RAW-Dual [1]; [4]): 0.934; NF-kB SEAP reporter activity (RAW-Dual [1]; [5]): 1.01; NF-kB SEAP reporter activity (RAW-Dual [1]; [6]): 0.958

Q: What does the source list for `CCC1=C(C)CN(C(=O)NCCc2ccc(S(=O)(=O)NC(=O)NC3CCC(C)CC3)cc2)C1=O` (configuration not stated)?
A: NF-kB SEAP reporter activity (RAW-Dual [2]; [7]): 0.845; NF-kB SEAP reporter activity (RAW-Dual [2]; [8]): 0.962

Q: For `CNC(=O)c1cc(COc2nnc(Nc3ccc(Cl)cc3)c3ccoc23)ccn1` (library stock concentration (final ~1000-fold dilution): 10 mM), which “NF-kB SEAP reporter activity” value (RAW-Dual [1]; agonist: LPS (TLR4) 0.1 ug/mL) is on record?
A: 0.547

Q: And the “NF-kB SEAP reporter activity” value (RAW-Dual [1]; [4])?
A: 0.947

Q: And the “NF-kB SEAP reporter activity” value (RAW-Dual [1]; [5])?
A: 0.802

Q: And the “NF-kB SEAP reporter activity” value (RAW-Dual [1]; [6])?
A: 0.958

Q: `CNC(=O)c1cc(COc2nnc(Nc3ccc(Cl)cc3)c3ccoc23)ccn1` was tested. Which “NF-kB SEAP reporter activity” value (RAW-Dual [2]; [7]) did it give?
A: 1.12

Q: And the “NF-kB SEAP reporter activity” value (RAW-Dual [2]; [8])?
A: 0.931

Q: For `O=C(O)/C=C/c1ccc(Cn2ccnc2)cc1` (library stock concentration (final ~1000-fold dilution): 10 mM), which “NF-kB SEAP reporter activity” value (RAW-Dual [1]; agonist: LPS (TLR4) 0.1 ug/mL) is on record?
A: 0.931

Q: And the “NF-kB SEAP reporter activity” value (RAW-Dual [1]; [4])?
A: 1.02

Q: And the “NF-kB SEAP reporter activity” value (RAW-Dual [1]; [5])?
A: 1.02

Q: And the “NF-kB SEAP reporter activity” value (RAW-Dual [1]; [6])?
A: 1.05

Q: How did the “NF-kB SEAP reporter activity” value (RAW-Dual [2]; [7]) turn out when `O=C(O)/C=C/c1ccc(Cn2ccnc2)cc1` was run?
A: 0.986

Q: What about the “NF-kB SEAP reporter activity” value (RAW-Dual [2]; [8]) of the same compound?
A: 1.02

Q: How did the “NF-kB SEAP reporter activity” value (RAW-Dual [2]; [7]) turn out when `COc1cc2nccc(Oc3ccc(NC(=O)C4(C(=O)Nc5ccc(F)cc5)CC4)cc3)c2cc1OC` was run?
A: 0.555

Q: And the “NF-kB SEAP reporter activity” value (RAW-Dual [2]; [8])?
A: 0.59

Q: For `COc1cc2nccc(Oc3ccc(NC(=O)C4(C(=O)Nc5ccc(F)cc5)CC4)cc3)c2cc1OC` (library stock concentration (final ~1000-fold dilution): 10 mM), which “NF-kB SEAP reporter activity” value (RAW-Dual [1]; agonist: LPS (TLR4) 0.1 ug/mL) is on record?
A: 0.511

Q: What about the “NF-kB SEAP reporter activity” value (RAW-Dual [1]; [4]) of the same compound?
A: 0.42

Q: And the “NF-kB SEAP reporter activity” value (RAW-Dual [1]; [5])?
A: 0.302

Q: What about the “NF-kB SEAP reporter activity” value (RAW-Dual [1]; [6]) of the same compound?
A: 0.275

Q: Which “NF-kB SEAP reporter activity” value (RAW-Dual [3]; agonist: LPS (TLR4) 0.1 ug/mL) does the source give for `Cl.Nc1ncccc1-c1nc2ccc(-c3ccccc3)nc2n1-c1ccc(C2(N)CCC2)cc1` (library stock concentration (final ~1000-fold dilution): 10 mM) here?
A: 0.954

Q: What about the “NF-kB SEAP reporter activity” value (RAW-Dual [3]; [4]) of the same compound?
A: 0.218

Q: And the “NF-kB SEAP reporter activity” value (RAW-Dual [3]; [5])?
A: 0.921

Q: And the “NF-kB SEAP reporter activity” value (RAW-Dual [3]; [6])?
A: 1.38

Q: `Cl.Nc1ncccc1-c1nc2ccc(-c3ccccc3)nc2n1-c1ccc(C2(N)CCC2)cc1` was tested. Which “NF-kB SEAP reporter activity” value (RAW-Dual [2]; cytotoxicity flag (confluency mask): cytotoxic (confluency <70% of control), agonist: Imiquimod (TLR7) […]) did it give?
A: 1.7

Q: What about the “NF-kB SEAP reporter activity” value (RAW-Dual [2]; [9]) of the same compound?
A: 1.8

Q: Which results are given for `CC(C)=CCC/C(C)=C/CC/C(C)=C/CC/C(C)=C/CC/C(C)=C/CC/C(C)=C/CC/C(C)=C/CC/C(C)=C/CC/C(C)=C/CO`?
A: NF-kB SEAP reporter activity (RAW-Dual [2]; [7]): 0.89; NF-kB SEAP reporter activity (RAW-Dual [2]; [8]): 0.978

Q: How did the “NF-kB SEAP reporter activity” value (RAW-Dual [1]; agonist: LPS (TLR4) 0.1 ug/mL) turn out when `CC(C)=CCC/C(C)=C/CC/C(C)=C/CC/C(C)=C/CC/C(C)=C/CC/C(C)=C/CC/C(C)=C/CC/C(C)=C/CC/C(C)=C/CO` (library stock concentration (final ~1000-fold dilution): 10 mM) was run?
A: 0.89

Q: And the “NF-kB SEAP reporter activity” value (RAW-Dual [1]; [4])?
A: 0.925

Q: What about the “NF-kB SEAP reporter activity” value (RAW-Dual [1]; [5]) of the same compound?
A: 0.89

Q: And the “NF-kB SEAP reporter activity” value (RAW-Dual [1]; [6])?
A: 0.954

Q: Which results are given for `COCCOC(=O)C1=C(C)NC(C)=C(C(=O)OC/C=C/c2ccccc2)C1c1cccc([N+](=O)[O-])c1` (configuration not stated)?
A: NF-kB SEAP reporter activity (RAW-Dual [2]; [7]): 0.933; NF-kB SEAP reporter activity (RAW-Dual [2]; [8]): 0.64

Q: What does the source list for `COCCOC(=O)C1=C(C)NC(C)=C(C(=O)OC/C=C/c2ccccc2)C1c1cccc([N+](=O)[O-])c1` (configuration not stated) (library stock concentration (final ~1000-fold dilution): 10 mM)?
A: NF-kB SEAP reporter activity (RAW-Dual [1]; agonist: LPS (TLR4) 0.1 ug/mL): 0.744; NF-kB SEAP reporter activity (RAW-Dual [1]; [4]): 0.511; NF-kB SEAP reporter activity (RAW-Dual [1]; [5]): 0.375; NF-kB SEAP reporter activity (RAW-Dual [1]; [6]): 0.398

Q: Which “NF-kB SEAP reporter activity” value (RAW-Dual [1]; agonist: LPS (TLR4) 0.1 ug/mL) does the source give for `COc1cc(O)c(C(=O)Nc2nc(C(=O)NCCN(C(C)C)C(C)C)cs2)cc1OC` (library stock concentration (final ~1000-fold dilution): 10 mM) here?
A: 0.987

Q: And the “NF-kB SEAP reporter activity” value (RAW-Dual [1]; [4])?
A: 1.02

Q: And the “NF-kB SEAP reporter activity” value (RAW-Dual [1]; [5])?
A: 0.952

Q: What about the “NF-kB SEAP reporter activity” value (RAW-Dual [1]; [6]) of the same compound?
A: 1.07

Q: `COc1cc(O)c(C(=O)Nc2nc(C(=O)NCCN(C(C)C)C(C)C)cs2)cc1OC` was tested. Which “NF-kB SEAP reporter activity” value (RAW-Dual [2]; [8]) did it give?
A: 1.01

Q: `Cc1cc(C)cc(C(=O)NOCCCCCC(=O)NO)c1` was tested. Which “NF-kB SEAP reporter activity” value (RAW-Dual [2]; [9]) did it give?
A: 2.74

Q: `Cc1cc(C)cc(C(=O)NOCCCCCC(=O)NO)c1` (library stock concentration (final ~1000-fold dilution): 10 mM) was tested. Which “NF-kB SEAP reporter activity” value (RAW-Dual [3]; agonist: LPS (TLR4) 0.1 ug/mL) did it give?
A: 5.28

Q: Which “NF-kB SEAP reporter activity” value (RAW-Dual [1]; agonist: LPS (TLR4) 0.1 ug/mL) does the source give for `CC(NC(=O)c1ccccc1N=Cc1c(O)ccc2ccccc12)c1ccccc1` (configuration not stated) (library stock concentration (final ~1000-fold dilution): 10 mM) here?
A: 5.11

Q: And the “NF-kB SEAP reporter activity” value (RAW-Dual [1]; [4])?
A: 1.72

Q: And the “NF-kB SEAP reporter activity” value (RAW-Dual [1]; [5])?
A: 0.843

Q: What about the “NF-kB SEAP reporter activity” value (RAW-Dual [1]; [6]) of the same compound?
A: 1.53
